To fix the notation:
B1: TP73, O15350 (protein)
chain: MAQSTATSPDGGTTFEHLWSSLEPDSTYFDLPQSSRGNNEVVGGTDSSMDVFHLEGMTTSVMAQFNLLSSTMDQMSSRAASASPYTPEHAASVPTHSPYAQPSSTFDTMSPAPVIPSNTDYPGPHHFEVTFQQSSTAKSATWTYSPLLKKLYCQIAKTCPIQIKVSTPPPPGTAIRAMPVYKKAEHVTDVVKRCPNHELGRDFNEGQSAPASHLIRVEGNNLSQYVDDPVTGRQSVVVPYEPPQVGTEFTTILYNFMCNSSCVGGMNRRPILIIITLEMRDGQVLGRRSFEGRICACPGRDRKADEDHYREQQALNESSAKNGAASKRAFKQSPPAVPALGAGVKKRRHGDEDTYYLQVRGRENFEILMKLKESLELMELVPQPLVDSYRQQQQLLQRPSHLQPPSYGPVLSPMNKVHGGMNKLPSVNQLVGQPPPHSSAATPNLGPVGPGMLNNHGHAVPANGEMSSSHSAQSMVSGSHCTPPPPYHADPSLVSFLTGLGCPNCIEYFTSQGLQSIYHLQNLTIEDLGALKIPEQYRMTIWRGLQDLKQGHDYSTAQQLLRSSNAATISIGGSGELQRQRVMEAVHFRVRHTITIPNRGGPGGGPDEWADFGFDLPDCKARKQPIKEEFTEAEIH
B2: DRAP1, Q14919 (protein)
chain: MPSKKKKYNARFPPARIKKIMQTDEEIGKVAAAVPVIISRALELFLESLLKKACQVTQSRNAKTMTTSHLKQCIELEQQFDFLKDLVASVPDMQGDGEDNHMDGDKGARRGRKPGSGGRKNGGMGTKSKDKKLSGTDSEQEDESEDTDTDGEEETSQPPPQASHPSAHFQSPPTPFLPFASTLPLPPAPPGPSAPDEEDEEDYDS
B3: TRIM38, O00635 (protein)
chain: MASTTSTKKMMEEATCSICLSLMTNPVSINCGHSYCHLCITDFFKNPSQKQLRQETFCCPQCRAPFHMDSLRPNKQLGSLIEALKETDQEMSCEEHGEQFHLFCEDEGQLICWRCERAPQHKGHTTALVEDVCQGYKEKLQKAVTKLKQLEDRCTEQKLSTAMRITKWKEKVQIQRQKIRSDFKNLQCFLHEEEKSYLWRLEKEEQQTLSRLRDYEAGLGLKSNELKSHILELEEKCQGSAQKLLQNVNDTLSRSWAVKLETSEAVSLELHTMCNVSKLYFDVKKMLRSHQVSVTLDPDTAHHELILSEDRRQVTRGYTQENQDTSSRRFTAFPCVLGCEGFTSGRRYFEVDVGEGTGWDLGVCMENVQRGTGMKQEPQSGFWTLRLCKKKGYVALTSPPTSLHLHEQPLLVGIFLDYEAGVVSFYNGNTGCHIFTFPKASFSDTLRPYFQVYQYSPLFLPPPGD

This is one part of the list. Binding of human transcription factors and regulators to the viral nucleoprotein by AlphaScreen, crude cell-free proteins, amounts not normalised, one pass. Fold of the Venus control; higher = more signal. No active / inactive call. Single-pass screen; sequences are the whole Swiss-Prot entries looked up by name.

The target of this test is nucleoprotein N of Crimean-Congo hemorrhagic fever virus. Briefly: AlphaScreen luminescence signal relative to Venus negative control (fold); higher = stronger binding to CCHFV N. The procedure:
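AlphaScreen binding of cell-free made, FLAG-GST-tagged human transcription factors and regulators (crude translation products) to biotinylated N protein; signal as fold of the FLAG-GST-Venus control. One pass.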
(Alpha assays give light when donor and acceptor beads are brought close together.)
In turn, B1 had an AlphaScreen luminescence signal of 1.44.
The result for B2 reads 1.49; that for B3, 1.95.

Source of the values: the supplement of paper PMC12423691.
